Out of some 390,000 compounds screened, about 1,400 (0.36%) were called active. The shares of active, inactive and inconclusive entries below differ from those in the screen. The call rests on the fitted dose curve; in most records, active means well fitted inhibition curve with a large enough effect; inconclusive means small, poorly fitted or top-dose-only effect; inactive means no such curve, though single readings can be large or run the other way. Potencies of inconclusive entries are doubtful fits and often do not repeat.
target: Flap endonuclease 1 (Homo sapiens) (UniProt P39748); assay: qHTS Assay for the Inhibitors of Human Flap endonuclease 1 (FEN1).; further: nearly all actives have a fitted effect of over 65% in size; conditions: Recombinant FEN1 flap cleavage, fluorescence, 15 min; series mostly up to 114 µM
Source text: The major human flap endonuclease FEN1 is an efficient structure-specific enzyme that recognizes and cleaves a 5'-unannealed DNA flap. It belongs to the RAD2 family nucleases, which are involved in DNA metabolism and are highly conserved in prokaryotes and eukaryotes. FEN1 is a key enzyme in DNA replication, repair and maintenance of genomic stability. 5'-flap removal by FEN1 is critical for Okazaki fragment processing during lagging strand DNA synthesis, long-patch base excision repair (LP BER), and regulating or facilitating recombination events. […] Deletion of the yeast FEN1 gene, i.e. rad27, results in an increased frequency of short DNA (3-32 bp) repeats, micro- and mini-satellite formation, trinucleotide repeat expansion, spontaneous recombination events, and a severe growth defect in association with cell cycle arrest in late S/G2 phase. […] Cells from fen1-/- blastocysts show increased apoptotic cell death after ionizing radiation treatment, and chicken cells lacking the fen1 gene are hypersensitive to DNA alkylating agents, e.g. methylmethane sulfonate (MMS) and N-methyl-N'-nitro-N-nitrosoguanidine (MNNG), as well as hydrogen peroxide.
NIH Chemical Genomics Center [NCGC]
NIH Molecular Libraries Probe Centers Network [MLPCN]
Assay Submitter (PI): David Wilson, National Institute of Aging
Three uL of reagents (buffer in column 3 and 4 as negative control and 10 nM FEN1 in columns 1, 2, and 5-48) were dispensed into 1,536-well black solid-bottomed plate. Compounds (23 nL) were transferred via Kalypsys pin tool equipped with 1536-pin array (10 nL slotted pins, V&P Scientific, San Diego, CA). The plates were then incubated for 15 min at room temperature, and 1 uL substrate (50 nM final concentration) were added to start the reaction read twice at 0 min read and 15 min on ViewLux reader. Throughout the screen, reagent bottle and all liquid lines were chilled and made light-tight to minimize reagent degradation. All screening operations were performed on a fully integrated robotic system (Kalypsys, San Diego, CA) containing one RX-130 and two RX-90 anthropomorphic robotic arms (Staubli, Duncan, SC). Library plates were screened starting from the lowest and proceeding to the highest concentration, and a "double-dipping" step of the highest concentration was required to access higher concentrations of compounds. Vehicle-only plates, with DMSO being pin-transferred to the entire column 5-48 compound area, were inserted uniformly at the beginning and the end of each library in order to monitor for and record any shifts in the background, which can be affected by reagent dispensers or loss in enzyme activity overtime. Screening data was corrected, normalized, and concentration-effect relationships were derived by using publicly-available curve fitting algorithms developed in-house (http://ncgc.nih.gov/pub/openhts). A four parameter Hill equation was fitted to the concentration-response data by minimizing the residual error between the modeled and observed responses.
Potency means the concentration at half of the fitted maximal effect; tags describe the fitted curve by direction and shape.

Sequence of UniProt P39748 (P39748 whole entry, looked up, the tested form may be a part): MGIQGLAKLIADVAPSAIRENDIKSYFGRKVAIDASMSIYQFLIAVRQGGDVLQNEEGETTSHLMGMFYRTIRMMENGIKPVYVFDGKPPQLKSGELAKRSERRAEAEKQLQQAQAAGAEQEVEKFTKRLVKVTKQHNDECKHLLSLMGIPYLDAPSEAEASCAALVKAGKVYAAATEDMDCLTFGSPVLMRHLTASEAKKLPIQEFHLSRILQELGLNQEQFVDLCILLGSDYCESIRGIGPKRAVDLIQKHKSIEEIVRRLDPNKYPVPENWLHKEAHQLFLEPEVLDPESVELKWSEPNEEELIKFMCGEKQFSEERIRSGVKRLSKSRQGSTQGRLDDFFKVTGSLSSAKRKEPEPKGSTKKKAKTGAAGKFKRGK

Structure (SMILES) | Potency
CCOC(=O)C1=C(C)N=c2s/c(=C\c3ccc(OCC(=O)O)c(OC)c3)c(=O)n2C1c1ccc(OC)cc1 (stereo not drawn) | inconclusive: 89.1 µM [inhibitor, single point]
O=C(O)Cn1cc(/C=c2/sc3nc4ccccc4n3c2=O)c2ccccc21 | inconclusive: 4.47 µM [inhibitor, partial curve, poor fit]
COc1cc(/C=N/Nc2ccc(Cl)c(C(=O)O)c2)ccc1OC(=O)c1ccc(F)cc1 | inconclusive: 89.1 µM [inhibitor, single point]
O=C(Nc1ccc(-c2nc3ccccc3[nH]2)cc1)c1ccccc1NS(=O)(=O)c1ccc(F)cc1 | inconclusive: 50.1 µM [inhibitor, partial curve]
CC(C)(C)c1ccc2c(c1)OC(C(=O)N/N=C\c1ccc(-c3cccc(C(=O)O)c3)o1)CO2 (stereo not drawn) | inconclusive: 89.1 µM [inhibitor, single point]
CS(=O)(=O)C1=NSC2=NC(=O)/C(=C\c3ccc(OC(=O)c4ccco4)c(Br)c3)C(=N)N21 | inconclusive: 39.8 µM [inhibitor, partial curve, poor fit]
Cc1c(CC(=O)O)c(=O)oc2c(C)c3occ(-c4ccc(Br)cc4)c3cc12 | inconclusive: 50.1 µM [inhibitor, partial curve, poor fit]
Cc1ccc(S(=O)(=O)Oc2ccc(/C=C3\C(=N)N4N=C(S(C)(=O)=O)SC4=NC3=O)cc2)cc1 | inconclusive: 44.7 µM [inhibitor, partial curve]

Source: PubChem BioAssay AID588795 (National Center for Advancing Translational Sciences (NCATS), 2011)
